# Assay results as given in the supplement of paper PMC8728848.
# This is one part of the list.
# B1: PEB3 Cj0289c (Campylobacter jejuni), Q9PIK7 (protein)
# chain: MDVNLYGPGGPHTALKDIANKYSEKTGVKVNVNFGPQATWFEKAKKDADILFGASDQSALAIASDFGKDFNVSKIKPLYFREAIILTQKGNPLKIKGLKDLANKKVRIVVPEGAGKSNTSGTGVWEDMIGRTQDIKTIQNFRNNIVAFVPNSGSARKLFAQDQADAWITWIDWSKSNPDIGTAVAIEKDLVVYRTFNVIAKEGASKETQDFIAYLSSKEAKEIFKKYGWRE
# Experiments:
# Assay in all cases: glycan array binding signal (z-score within array); higher = stronger binding
# Details in all cases: glycan notation: IUPAC condensed, linker removed
# [1] = target: Gal3S(b1-4)Glc
# Procedure, shortened: (§1)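 Glycan array binding is given as a within-array Z-score, which can be read as non-binding when negative. The arrays, 3228 of them, came from the Consortium for Functional Glycomics database and were retained only where the protein sequence was available. Z-scores were averaged across arrays of the same protein sequence at different concentrations or buffers and across linkers.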
# [2] = target: Gal3S(b1-4)Glc6S
# Procedure, shortened: as §1
# [3] = target: Gal3S(b1-4)GlcNAc
# Procedure, shortened: as §1
# [4] = target: Gal3S(b1-4)GlcNAc6S
# Procedure, shortened: as §1
# [5] = target: Gal3S6S(b1-4)GlcNAc
# Procedure, shortened: as §1
# [6] = target: Gal3S6S(b1-4)GlcNAc6S
# Procedure, shortened: as §1
# [7] = target: Gal4S(b1-4)GlcNAc
# Procedure, shortened: as §1
# [8] = target: Gal4S6S(b1-4)GlcNAc
# Procedure, shortened: as §1
# [9] = target: Gal6S(b1-4)Glc
# Procedure, shortened: as §1
# [10] = target: Gal6S(b1-4)Glc6S
# Procedure, shortened: as §1
# [11] = target: Gal6S(b1-4)GlcNAc
# Procedure, shortened: as §1
# [12] = target: GalNAc(a1-3)Gal
# Procedure, shortened: as §1
# [13] = target: GalNAc(a1-3)GalNAc
# Procedure, shortened: as §1
# [14] = target: GalNAc(b1-3)Gal(a1-4)Gal(b1-4)GlcNAc
# Procedure, shortened: as §1
# [15] = target: GalNAc(b1-4)GlcNAc
# Procedure, shortened: as §1
# [16] = target: Glc(a1-4)Glc
# Procedure, shortened: as §1
# [17] = target: Glc(a1-6)Glc(a1-6)Glc
# Procedure, shortened: as §1
# [18] = target: Glc(b1-4)Glc
# Procedure, shortened: as §1
# [19] = target: Glc(b1-6)Glc
# Procedure, shortened: as §1
# [20] = target: GlcA(b1-3)Gal
# Procedure, shortened: as §1
# [21] = target: GlcA(b1-6)Gal
# Procedure, shortened: as §1
# [22] = target: GlcNAc(a1-3)Gal(b1-4)GlcNAc
# Procedure, shortened: as §1
# [23] = target: GlcNAc(a1-6)Gal(b1-4)GlcNAc
# Procedure, shortened: as §1
# [24] = target: GlcNAc(b1-2)Gal(b1-3)GlcNAc
# Procedure, shortened: as §1
# [25] = target: GlcNAc(b1-2)Man(a1-3)[GlcNAc(b1-2)Man(a1-6)]Man(b1-4)GlcNAc(b1-4)GlcNAc
# Procedure, shortened: as §1
# [26] = target: GlcNAc(b1-3)Gal
# Procedure, shortened: as §1
# [27] = target: GlcNAc(b1-3)Gal(b1-3)GalNAc
# Procedure, shortened: as §1
# [28] = target: GlcNAc(b1-3)Gal(b1-4)Glc
# Procedure, shortened: as §1
# [29] = target: GlcNAc(b1-3)Gal(b1-4)GlcNAc
# Procedure, shortened: as §1
# [30] = target: GlcNAc(b1-3)Gal(b1-4)GlcNAc(b1-3)Gal(b1-4)GlcNAc
# Procedure, shortened: as §1
# [31] = target: GlcNAc(b1-3)GalNAc
# Procedure, shortened: as §1
# [32] = target: GlcNAc(b1-3)[GlcNAc(b1-4)][GlcNAc(b1-6)]GlcNAc
# Procedure, shortened: as §1
# [33] = target: GlcNAc(b1-3)[GlcNAc(b1-6)]Gal(b1-4)GlcNAc
# Procedure, shortened: as §1
# [34] = target: GlcNAc(b1-3)[GlcNAc(b1-6)]GlcNAc
# Procedure, shortened: as §1
# [35] = target: GlcNAc(b1-4)Gal(b1-4)GlcNAc
# Procedure, shortened: as §1
# [36] = target: GlcNAc(b1-4)GlcNAc(b1-4)GlcNAc
# Procedure, shortened: as §1
# [37] = target: GlcNAc(b1-4)GlcNAc(b1-4)GlcNAc(b1-4)GlcNAc(b1-4)GlcNAc
# Procedure, shortened: as §1
binder,measurement,setting,value
B1,glycan array binding signal (z-score),[1],0.858
same,glycan array binding signal (z-score),[2],1.38
same,glycan array binding signal (z-score),[3],0.177
same,glycan array binding signal (z-score),[4],0.607
same,glycan array binding signal (z-score),[5],0.902
same,glycan array binding signal (z-score),[6],2.8
same,glycan array binding signal (z-score),[7],0.039
same,glycan array binding signal (z-score),[8],0.469
same,glycan array binding signal (z-score),[9],0.401
same,glycan array binding signal (z-score),[10],1.36
same,glycan array binding signal (z-score),[11],0.119
same,glycan array binding signal (z-score),[12],-0.138
same,glycan array binding signal (z-score),[13],-0.221
same,glycan array binding signal (z-score),[14],-0.356
same,glycan array binding signal (z-score),[15],-0.259
same,glycan array binding signal (z-score),[16],-0.142
same,glycan array binding signal (z-score),[17],-0.314
same,glycan array binding signal (z-score),[18],0.314
same,glycan array binding signal (z-score),[19],0.09
same,glycan array binding signal (z-score),[20],0.158
same,glycan array binding signal (z-score),[21],0.216
same,glycan array binding signal (z-score),[22],-0.304
same,glycan array binding signal (z-score),[23],-0.094
same,glycan array binding signal (z-score),[24],-0.446
same,glycan array binding signal (z-score),[25],0.434
same,glycan array binding signal (z-score),[26],-0.111
same,glycan array binding signal (z-score),[27],-0.114
same,glycan array binding signal (z-score),[28],-0.447
same,glycan array binding signal (z-score),[29],0.507
same,glycan array binding signal (z-score),[30],-0.379
same,glycan array binding signal (z-score),[31],-0.314
same,glycan array binding signal (z-score),[32],-0.251
same,glycan array binding signal (z-score),[33],-0.234
same,glycan array binding signal (z-score),[34],-0.355
same,glycan array binding signal (z-score),[35],-0.422
same,glycan array binding signal (z-score),[36],-0.05
same,glycan array binding signal (z-score),[37],0.274
